# Laboratory results reported in the supplement of paper PMC3334620.
# Whole data set: some 33,000 sequences, median “E-score (-0.5 to 0.5)” near -0.043, cut for the highest 2% near 0.37. The list shows a part of the results.
# Biological target: T1, Upc2 (UniProt Q12151)
# T1 sequence: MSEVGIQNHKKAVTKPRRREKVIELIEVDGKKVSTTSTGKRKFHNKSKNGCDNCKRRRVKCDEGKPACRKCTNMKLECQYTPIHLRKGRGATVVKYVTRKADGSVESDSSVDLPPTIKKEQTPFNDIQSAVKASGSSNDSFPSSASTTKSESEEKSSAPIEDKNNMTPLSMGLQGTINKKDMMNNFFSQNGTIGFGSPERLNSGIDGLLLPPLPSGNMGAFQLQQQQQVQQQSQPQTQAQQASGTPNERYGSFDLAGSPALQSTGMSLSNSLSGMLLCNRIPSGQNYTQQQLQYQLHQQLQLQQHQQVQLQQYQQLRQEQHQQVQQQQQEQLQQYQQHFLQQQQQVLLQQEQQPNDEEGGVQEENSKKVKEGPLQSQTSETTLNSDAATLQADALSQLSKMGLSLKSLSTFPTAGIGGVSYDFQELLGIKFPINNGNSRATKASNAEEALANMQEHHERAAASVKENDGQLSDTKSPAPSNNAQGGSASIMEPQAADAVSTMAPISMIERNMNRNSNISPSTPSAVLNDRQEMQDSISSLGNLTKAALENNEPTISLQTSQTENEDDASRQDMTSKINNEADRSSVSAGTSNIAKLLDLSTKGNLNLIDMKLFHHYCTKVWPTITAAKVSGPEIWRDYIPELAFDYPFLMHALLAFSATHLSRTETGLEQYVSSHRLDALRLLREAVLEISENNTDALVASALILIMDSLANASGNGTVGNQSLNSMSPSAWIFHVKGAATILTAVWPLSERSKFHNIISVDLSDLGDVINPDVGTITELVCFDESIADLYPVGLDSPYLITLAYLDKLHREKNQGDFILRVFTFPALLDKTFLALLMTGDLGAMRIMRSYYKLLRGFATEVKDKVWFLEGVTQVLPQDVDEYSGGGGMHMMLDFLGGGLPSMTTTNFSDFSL
# Test: PBM E-score (8-mer binding enrichment) (E-score (-0.5 to 0.5)); higher = stronger / more preferred TF binding; most listed sequences are background and not binding sites
# Conditions: protein concentration: 200 nM; construct: GST-full length
# Method in brief: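 Yeast transcription factors carrying a GST tag, as full-length proteins or DNA-binding domains, were produced by PURExpress in vitro transcription/translation. About 100-200 nM protein was applied to universal all-10-mer Agilent arrays, double-stranded by primer extension on fresh or once-stripped slides. Bound protein was detected with fluorescent anti-GST, and scans were normalised with masliner. The Universal PBM Analysis Suite gave each ungapped eight-base word, pooled with its reverse complement, an E-score, a modified Wilcoxon-Mann-Whitney statistic.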
row,Sequence,PBM E-score
1,AAATTCGT,0.277
2,CCCGGTAA,-0.0292
3,ACTACTAA,-0.0634
4,AATCTTTA,-0.037
5,AGCAAAAG,0.00111
6,CCTAGAAA,-0.189
7,AAGTGTAT,0.00114
8,CTCGATAC,0.145
9,CGCCGCAA,0.0649
10,CGATTGCC,0.126
11,AGTGCACG,0.186
12,AGGTTTTA,-0.199
13,CAATATGC,0.0202
14,ATCGCGTC,0.011
15,ACTTGACT,-0.223
16,CGCTCCTA,-0.0684
17,AACGCTGA,0.0761
18,TGTAAAAA,-0.0321
19,CAGGATGA,-0.0985
20,CCTATCAA,-0.0671
21,CAGCGGCG,0.0015
22,TACTTAAA,0.0169

row,Sequence,PBM E-score
1,CGCAGGAA,0.0186
2,AGTGCTAG,-0.172
3,AATCTGTC,-0.0441
4,GTGAACAA,0.128
5,ACGATACA,0.279
6,ACTACCCC,-0.325
7,AAACAGGG,-0.0849
8,ACCCCGAA,0.0282
9,AAGTCCTA,0.0708
10,AAAGACGC,-0.0878
11,ACGCTTGC,-0.0193
12,AACTAGCT,0.101
13,ATGCGTTC,0.204
14,ATCGGAGA,-0.292
15,GAACGGCC,0.255
16,CTATACAC,0.0512
17,AGAGGACG,-0.0919
18,CTACTTGC,-0.0629
19,CCTGCCAA,-0.0976
20,TATCTCCA,-0.164
21,GCAACACC,-0.0716
22,ACGCGCCA,0.0919

row,Sequence,PBM E-score
1,AGTCAAGC,-0.119
2,CAAAGGAC,-0.28
3,ATTTTTAA,0.123
4,CGATGGTA,0.1
5,TCGCGAGA,0.2
6,AGCTACGG,0.0336
7,CCACCCAA,-0.11
8,AATAACGG,0.203
9,GACGATGC,-0.0158
10,CTCCATCA,-0.199
11,GGTGGCAC,-0.236
12,CTCCTGTC,-0.224
13,ATAAGGAG,-0.088
14,GCCGTTAC,0.141
15,CAACAAGG,-0.135
16,CTGTGCAC,0.0952
17,AAAAATGA,0.0107
18,AATGGGCA,-0.00586
19,CGAAACCG,0.152
20,CAACTATC,0.0913
21,GCCACAGA,-0.149
22,GCGTCGGA,0.177

row,Sequence,PBM E-score
1,ATAAAAGA,0.204
2,GCTCTAAA,-0.0245
3,CCTATTCC,-0.219
4,AGATCGGG,-0.148
5,TCCTGAAA,-0.153
6,AGGTTATC,-0.112
7,CCGTCCAC,-0.0949
8,AGACTGTA,0.177
9,ATCACGTC,-0.0638
10,AATGAAAA,0.0243
11,AATGGTGG,-0.224
12,ACTGTCGG,-0.0529
13,CTACGATA,0.31
14,GTGGCGCA,-0.0284
15,GGGTGACA,-0.11
16,AGTCGGAA,-0.0651
17,TCCAGCAA,0.017
18,CGGTTTAG,0.161
19,AGCAGAAT,-0.0745
20,ACAAAGCC,-0.0509
